The values that follow come from PubChem BioAssay AID1508624 (National Center for Advancing Translational Sciences (NCATS), 2021).

SMILES strings stand for the structures. Screen size: about 48,000 compounds; about 120 (0.25%) were called active. Roughly 4% stayed inconclusive and do not appear here. Calls follow the shape of the dose curve; as a rule, active = well fitted activation curve with a large enough effect; inconclusive = small, poorly fitted or top-dose-only effect, or another doubt; inactive = no such curve, though single readings can be large or run the other way. The list shows a part of the results.

The assay can be described thus: Primary qHTS for Identification of Small Molecule Activators of Huntingtin-Antisense Promoter Activity. Also: nearly all actives have a fitted effect of over 55% in size. The note with it: HEK293 HTT-AS promoter firefly luciferase reporter, 24 h; series mostly up to 57.5 µM; activity change, positive = activation: at the top concentration. The essentials:
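HEK293 Fluc reporter, 2,500 cells/well, 24 h pre-culture; cpds up to 57.5 uM final, 24 h 37 degrees C; Dual-Glo, 10 min RT; normalized vehicle = 0%, zero RLU = -100%.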
(In general: Quantitative high-throughput screening tests each substance at several concentrations.)
Regarding `Cc1ccc(NC(=O)C2CCCN(S(=O)(=O)c3c(C)noc3C)C2)cc1` (stereo unspecified), the “activity change, positive = activation” value was inactive: -21.4%.
Regarding `Nc1c(C(=O)Nc2ccccc2)sc2nc3c(cc12)CN(Cc1ccccc1)CC3`, the “activity change, positive = activation” value was inactive: -8.55%.
With `Cc1cccc(-n2c(=O)c3c4c(sc3n3c(C)nnc23)CCCC4)c1`, the “activity change, positive = activation” value is inactive: 0%.
Consider `COc1ccc(NC(=O)c2oc3ccccc3c2NC(=O)C2CCCCC2)c(OC)c1`, for which the “activity change, positive = activation” value is inactive: -1.42%.
Turning to `CCOc1cc(C#N)c(-n2nnc3c(sc4nc(C)cc(C)c43)c2=O)cc1OCC`, the “activity change, positive = activation” value was inactive: -10%.
Take `CCCCN(C)C(=O)c1ccc2c(c1)N(Cc1cccc(F)c1)C(=O)c1ccccc1S2`: the “activity change, positive = activation” value is inactive: -27.1%.
Consider `CCOC(=O)c1scc(-c2ccc(C)cc2)c1S(=O)(=O)Nc1cc(OC)ccc1OC`, for which the “activity change, positive = activation” value was inactive: -30.1%.
In the case of `NS(=O)(=O)c1ccc(C(=O)O)cc1`, the “activity change, positive = activation” value is inactive: 1.71%.
The result for `Cc1cc(C)c(/C=C/c2onc(C)c2S(=O)(=O)N2CCC(C(=O)NCCc3ccccc3)CC2)c(C)c1` reads inactive: -4.62%; that for `COc1c(C)cc(Br)cc1C(=O)Nc1ccc(-c2nc3ncccc3o2)cc1`, inactive: -32.9%; that for `CCOc1ccc(NC(=O)Cn2c(=O)n(-c3cccc(Cl)c3)c(=O)c3c2c2cc(C)ccc2n3C)cc1`, inactive: -3.41%.
Regarding `COc1cc(NC(=O)c2ccc3oc(=O)c(S(=O)(=O)c4ccccc4)cc3c2)cc(OC)c1`, the “activity change, positive = activation” value was inactive: -81.5%.
As for `CCOc1cccc(C2c3[nH]c4ccccc4c3CCN2C(=O)CSc2ccccc2)c1` (stereo unspecified), the figure is inactive: -26.2%; as for `Cc1cccc(C(=O)N2CCc3cc(CNC(=O)COc4ccc(Cl)cc4)ccc32)c1`, inactive: 4.83%.
With `CC(C)c1ccc(NC(=O)C2CCN(S(=O)(=O)c3cccc4nonc34)CC2)cc1`, the “activity change, positive = activation” value is inactive: -14.1%.
As for `Cc1ccccc1Nc1c(-c2ccc(Cl)cc2)nc2c(C)cccn12`, the figure is inactive: 10.9%; as for `COc1ccc(NC(=O)Cn2c(=O)n(CCc3ccccc3)c(=O)c3c4c(sc32)CCCC4)cc1`, inactive: -4.68%; as for `Cc1ccc(N2C(=O)CSC23C(=O)N(Cc2ccccc2F)c2ccccc23)cc1F` (stereo unspecified), inactive: -33.2%.
For `CCOC(=O)c1c(NC(=O)c2nc(SCC)ncc2Cl)sc2c1CCCC2`, the “activity change, positive = activation” value is inactive: 26.2%.
As for `COc1cc2c(=O)c(C(=O)c3ccc(C)c(C)c3)cn(Cc3ccc(F)cc3)c2cc1OC`, the figure is inactive: -3.71%.
As for `CCOc1ccccc1NC(=O)c1ccc2c(c1)CCN2S(=O)(=O)c1ccc(C)cc1`, the figure is inactive: 7.51%.
As for `Cc1ccccc1NC(=O)CSc1cn(CC(=O)N2CCCCCC2)c2ccccc12`, the figure is inactive: -29.3%.
As for `Cc1nc(SCC(=O)Nc2ccccc2C)cc(-c2ccccc2)n1`, the “activity change, positive = activation” value was inactive: -8.45%.
As to `CCSc1nnc2c(n1)OC(c1cc(OC)c(OC)c(OC)c1)Nc1ccccc1-2` (stereo unspecified), the activity change, positive = activation is inactive: -0.87% [at 11.5 µM, percent change from vehicle, -100% = no light].
For the compound `CCOc1cc(CNC(=O)Cn2c(=O)c3cccn3c3ccc(F)cc32)cc(OCC)c1OCC`, the “activity change, positive = activation” value was inactive: -14.4%.
In the case of `CCOC(=O)c1c(C)[nH]c(C)c1S(=O)(=O)NCC(=O)Nc1ccc(C)c(N(C)C)c1`, the “activity change, positive = activation” value is inactive: 12.4%.
The result for `COc1cc(OC)c(NC(=O)c2cc3c(=O)oc4ccc(C)cc4c3s2)cc1Cl` reads inactive: -9.31%; that for `Cc1cc(NC(=O)c2cc(-c3ccc(Cl)cc3)on2)n(-c2ccccc2)n1`, inactive: -7.36%.
Regarding `COc1ccc(CNC(=O)Cc2ccc(NC(=O)N3CCSc4ncccc43)cc2)cc1OC`, the “activity change, positive = activation” value is inactive: -18.4%.
`O=C(NCCc1ccccc1)C(=O)NCC(c1ccco1)S(=O)(=O)c1cccs1` (stereo unspecified): the “activity change, positive = activation” value was inactive: -2.34%.
Regarding `COc1ccc(-c2nc(CSc3nncn4c3cc3oc(C)cc34)c(C)o2)cc1`, the “activity change, positive = activation” value was inactive: 1.41%.
In the case of `Cc1ccccc1NC(=O)c1ccc(F)c(S(=O)(=O)N2CCN(c3ccccc3F)CC2)c1`, the “activity change, positive = activation” value was inactive: -41.9%.
Turning to `COc1ccc(OC)c(CCNC(=O)c2ccc3c(c2)c(C)c(C)n3Cc2ccccc2)c1`, the “activity change, positive = activation” value is inactive: -28.8%.
In the case of `COc1cc(NC(=O)CN2C(=O)c3ccccc3Sc3ccc(C(=O)N4CCCC4)cc32)cc(OC)c1`, the “activity change, positive = activation” value is inactive: -22%.
For the compound `CCOC(=O)c1ccccc1NC(=O)CN1CCCN(Cc2cc(C)ccc2C)S1(=O)=O`, the “activity change, positive = activation” value was inactive: -35%.
The result for `CCOC(=O)c1[nH]c2ccccc2c1NC(=O)c1ccccc1F` reads inactive: -22.4%; that for `Cc1oc2ncnc(N3CCCCC3)c2c1C(=O)NCC1CCN(Cc2cccc(F)c2)CC1`, inactive: 4.47%.
For the compound `CCN1CCN(CCCNC(=O)CS(=O)(=O)Cc2nc(-c3cccc(OC)c3)oc2C)CC1`, the “activity change, positive = activation” value is inactive: -9.96%.
As to `CCC(CC)c1nn2c(=O)cc(COc3ccc(NC(=O)c4ccccc4C)cc3)nc2s1`, the “activity change, positive = activation” value was inactive: -26.8%.
Turning to `COc1cc(NS(=O)(=O)c2ccc(NC(=O)c3cccc(F)c3)cc2)nc(OC)n1`, the “activity change, positive = activation” value was inactive: -17.8%.
As for `CCC1CN(S(=O)(=O)c2cc(-c3cc(C)no3)ccc2C)c2cc(Cl)ccc2O1` (stereo unspecified), the figure is inactive: -10.5%.
Take `COc1cc(NC(=O)CC2C(=O)OCCN2Cc2ccccc2)cc(OC)c1` (stereo unspecified): the “activity change, positive = activation” value was inactive: -25.9%.
As for `CCCc1nn2c(=O)cc(COC(=O)c3cccc(NC(=O)c4cccs4)c3)nc2s1`, the figure is inactive: -7.04%; as for `COc1ccc(C(=O)NCC(c2cccnc2)N2CCN(c3ccccc3)CC2)cc1` (stereo unspecified), inactive: -23.7%.
In the case of `CCc1cccc(C)c1NC(=O)CCS(=O)(=O)c1cc(Br)cc2c1N(C(=O)C1CC1)CC2`, the “activity change, positive = activation” value is inactive: -19.1%.
For `COc1cccc(Cn2c(=O)cc(C)c3c(C)nn(C)c32)c1`, the “activity change, positive = activation” value is inactive: -30.6%.
